Assay results: article PMC3390797, “Regulation of ASIC channels by a stomatin/STOML3 complex located in a mobile vesicle pool in sensory neurons” (Open Biology, 2012)
Results are given in words; binding and its absence hold for the method and conditions named. Binding seen in cells or lysates may run through a third protein. Some results given as binding are weak or reduced against the parent protein; the word gives no strength. Where a sequence is shown, tags or fusion partners need not be part of it.

T1: P40S STOML3 mutant protein (Strep-tagged, CFP-tagged) (mouse) (UniProt Q6PE84)
T1 sequence: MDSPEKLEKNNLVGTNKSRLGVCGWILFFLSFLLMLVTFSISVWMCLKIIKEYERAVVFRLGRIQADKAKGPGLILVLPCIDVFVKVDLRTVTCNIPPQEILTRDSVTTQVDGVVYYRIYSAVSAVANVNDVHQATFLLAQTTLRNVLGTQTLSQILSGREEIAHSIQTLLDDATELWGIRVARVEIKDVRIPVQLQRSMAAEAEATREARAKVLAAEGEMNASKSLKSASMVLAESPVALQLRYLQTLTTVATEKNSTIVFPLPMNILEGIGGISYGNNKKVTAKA

T2: STOML3-Δ1–128 (Strep-tagged, CFP-tagged) (mouse) (UniProt Q6PE84)
T2 sequence: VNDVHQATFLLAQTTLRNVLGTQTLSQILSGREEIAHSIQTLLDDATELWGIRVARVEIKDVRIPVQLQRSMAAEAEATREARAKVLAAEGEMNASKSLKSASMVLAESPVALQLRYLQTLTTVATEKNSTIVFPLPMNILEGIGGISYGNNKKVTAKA

T3: STOML3Δ129–287 (Strep-tagged, CFP-tagged) (mouse) (UniProt Q6PE84)
T3 sequence: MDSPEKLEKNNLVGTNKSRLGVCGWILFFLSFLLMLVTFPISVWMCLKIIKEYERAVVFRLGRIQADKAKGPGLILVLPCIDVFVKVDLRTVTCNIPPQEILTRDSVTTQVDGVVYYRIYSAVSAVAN

T4: STOML3Δ1–50 (Strep-tagged, CFP-tagged) (mouse) (UniProt Q6PE84)
T4 sequence: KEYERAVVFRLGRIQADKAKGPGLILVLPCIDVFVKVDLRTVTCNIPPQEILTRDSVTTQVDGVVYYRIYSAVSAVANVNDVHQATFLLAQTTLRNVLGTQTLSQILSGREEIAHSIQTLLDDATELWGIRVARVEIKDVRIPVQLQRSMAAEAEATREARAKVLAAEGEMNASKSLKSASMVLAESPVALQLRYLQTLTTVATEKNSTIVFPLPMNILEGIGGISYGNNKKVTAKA

T5: Strep-tagged STOML3-AmCyan1 (stomatin-like protein-3, wild type) (mouse) (UniProt Q6PE84)
T5 sequence: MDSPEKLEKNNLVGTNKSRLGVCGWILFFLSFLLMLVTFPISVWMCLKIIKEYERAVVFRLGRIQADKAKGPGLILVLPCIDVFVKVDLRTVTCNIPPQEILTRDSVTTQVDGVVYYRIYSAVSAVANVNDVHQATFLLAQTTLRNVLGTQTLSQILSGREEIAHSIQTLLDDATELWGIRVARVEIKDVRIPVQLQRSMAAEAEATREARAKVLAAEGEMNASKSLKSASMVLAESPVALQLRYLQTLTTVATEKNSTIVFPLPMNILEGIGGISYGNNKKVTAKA


Assays:
[1] = target: T1, P40S STOML3 mutant protein (Strep-tagged, CFP-tagged) (mouse); test: co-IP; CHO cells transiently transfected with STOML3-Strep and ASICx-Flag or stomatin-Myc (1:1), 48 h; lysed in RIPA buffer (50 mM Tris pH 7.4, 300 mM NaCl, 1 mM EDTA, 0.5% deoxycholic acid, 0.5% Triton-X100, 0.1% SDS, 1 mM DTT); anti-Strep antibody and Protein G agarose overnight; blot with anti-Flag or anti-Myc
[2] = target: T2, STOML3-Δ1–128 (Strep-tagged, CFP-tagged) (mouse); test: as above
[3] = target: T3, STOML3Δ129–287 (Strep-tagged, CFP-tagged) (mouse); test: as above
[4] = target: T4, STOML3Δ1–50 (Strep-tagged, CFP-tagged) (mouse); test: as above
[5] = target: T5, Strep-tagged STOML3-AmCyan1 (stomatin-like protein-3, wild type) (mouse); test: as above
[6] = target: T1, P40S STOML3 mutant protein (Strep-tagged, CFP-tagged) (mouse); test: FRET or BRET; three-cube FRET imaging of CHO cells co-expressing the AmCyan1 (CFP) and EYFP fusions; apparent FRET efficiency, calibrated with two fluorophore-tandem constructs
[7] = target: T2, STOML3-Δ1–128 (Strep-tagged, CFP-tagged) (mouse); test: as above
[8] = target: T3, STOML3Δ129–287 (Strep-tagged, CFP-tagged) (mouse); test: as above
[9] = target: T4, STOML3Δ1–50 (Strep-tagged, CFP-tagged) (mouse); test: as above

Row | binding [1] | binding [2] | binding [3] | binding [4] | binding [5] | binding [6] | binding [7] | binding [8] | binding [9] | Binder
1 | no binding | no binding | no binding | no binding | binds | – | – | – | – | stomatin-Myc (protein, UniProt P54116 1-284) MSDKRQSSHVQSQRIPESFRENSKTELGACGWILVAASFFFVIITFPISIWICIKIVKEYERVIIFRLGRILQGGAKGPGLFFILPCTDSLIKVDMRTISFDIPPQEVLTKDSVTISVDGVVYYRVQNATLAVANITNADSATRLLAQTTLRNALGTKNLSQILSDREEIAHHMQSTLDDATDDWGIKVERVEIKDVKLPVQLQRAMAAEAEAAREARAKVIAAEGEMNASRALKEASMVITESPAALQLRYLQTLTTIAAEKNSTIVFPLPVDMLQGIMGSNH
2 | – | – | – | – | – | no binding | no binding | no binding | no binding | EYFP-stomatin (protein, UniProt P54116 1-284) MSDKRQSSHVQSQRIPESFRENSKTELGACGWILVAASFFFVIITFPISIWICIKIVKEYERVIIFRLGRILQGGAKGPGLFFILPCTDSLIKVDMRTISFDIPPQEVLTKDSVTISVDGVVYYRVQNATLAVANITNADSATRLLAQTTLRNALGTKNLSQILSDREEIAHHMQSTLDDATDDWGIKVERVEIKDVKLPVQLQRAMAAEAEAAREARAKVIAAEGEMNASRALKEASMVITESPAALQLRYLQTLTTIAAEKNSTIVFPLPVDMLQGIMGSNH
